Drawing on PubChem BioAssay (NCI), this text covers TGI and GI50 for 53 molecules.

“And” between values parts separate entries of the source, which are not always exact repeats. Equal entries are not always repeated.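 Five compound concentrations were applied to cells in 96-well plates for 48 hours; endpoints were derived by simple linear interpolation of the resulting dose-response curve. GI50 is the concentration that inhibits growth by half. TGI: total growth inhibition.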

For this test, the system named is NCI-H322M lung. In words: NCI-60 cell line screen, 48 h.
For `OCC12C3C4C1C1C2C3C41CO` (centres undefined), the TGI is above 100 µM. In turn, `CC(C)[C@](O)(C(=O)OCC1CC[N+]2([O-])CC[C@@H](O)C12)[C@H](C)O` (some centres undefined) showed a TGI above 375 µM.

Molecule `CC1=C(C(=O)NCc2ccccc2)C(c2ccccc2[N+](=O)[O-])C(C(=O)NCc2ccccc2)=C(C)N1` came in with a TGI of 29.6 µM. For the molecule `COC(=O)C(Cc1ccccc1)OC(=O)C(N)CC(=O)O` (centres undefined), the TGI was above 100 µM.

The molecule `CC1=C(C(=O)Nc2ccc(Cl)c(Cl)c2)C(c2ccco2)C(C(=O)Nc2ccc(Cl)c(Cl)c2)=C(C)N1` displayed a TGI of 27 µM. In the case of `CCOC(=O)c1sc(Nc2ccc(Cl)cc2)nc1C`, the GI50 was 2.48 µM and the TGI was found to be 7.6 µM. For the molecule `Nc1ccc(/C=N/Nc2ccnc3c(N)cccc23)c2cccnc12`, the GI50 is 1.77 µM and the TGI was 3.6 µM.

In the case of `Cn1c(-c2ccc(/C=N\N3CCN(/N=C/c4ccc(-c5c[n+]6ccsc6n5C)cc4)CC3)cc2)c[n+]2ccsc12`, the TGI was above 100 µM.

With `OCCN(CCO)c1ccc2c(c1)Cc1ccccc1-2`, the TGI is above 100 µM. `N=c1ccc2c(c1)[nH]c1c3ccccc3[nH]c3cccc2c31` had a TGI of 2.58 µM. The same measure, in the same setting: then `N/N=C1\CCCc2c1no[n+]2[O-]`, with above 100 µM.

With `C[C@@H]1C=C2C(=O)O[C@@H]3CC[C@H](C1)[C@]23O`, the GI50 was 6.15 µM and the TGI stood at 32.8 µM. For `CCC(=C/[C@H](C)C/C=C/C(C)=C/[C@@H](C)C(=O)[C@@H](C)[C@H](O)[C@@H](C)CC)/C=C/[C@H]1OC(=O)C=C[C@H]1C`, the GI50 is below 0.01 µM and the TGI amounted to 2.85 µM. With `COc1ccc2[nH]c3c(c2c1)COc1ccccc1C3=O`, the TGI was above 100 µM.

The molecule `COc1cccc(/C=C2\CCCCCC2=O)c1` returned a TGI above 100 µM. In the case of `Cc1[nH]c(=O)[nH]c(=O)c1CO`, the GI50 was above 100 µM and the TGI was above 100 µM. As for `COc1ccc([N+](=O)[O-])c(S(=O)(=O)c2ccc(Cl)cc2)n1`, the GI50 is 20.4 µM and the TGI amounted to 37.1 µM.

For the molecule `CCCCn1c2c(n(CCCC)c1=S)-c1c(n(CCCC)c(=S)n1CCCC)SSSS2`, the TGI is above 100 µM. The molecule `NS(=O)(=O)c1ccc(CNc2nc(-c3cccs3)nc3ccc(I)cc23)cc1` returned a TGI of 34.8 µM. On to `Nc1c(C(=O)Nc2ccccc2Cl)sc2nc3c(cc12)CCCCCC3`, for which the GI50 was 12.5 µM and the TGI is above 100 µM.

Consider `O=C(c1cccnc1)N1N=C(c2ccc(Cl)cc2)CC1(O)c1cc(F)c(Cl)cc1Cl` (centres undefined), for which the TGI is above 100 µM. In turn, `CC(C)(C)C(=O)C1CC(=O)c2ccccc2C1=O` (centres undefined) had a TGI of 74.8 µM. In the case of `NCCC(O)(P(=O)(O)O)P(=O)(O)O`, the GI50 was above 100 µM and the TGI was above 100 µM. On to `O=c1cnn2c(n1)sc1ccc3ccccc3c12`, for which the TGI is above 100 µM.

On to `COC1=CC(c2ccc[nH]2)=N/C1=C\c1[nH]c(C)c(C(=O)CCCCC(=O)Nc2ccccc2)c1C`, for which the GI50 was 9.86 µM and the TGI worked out at 29.9 µM. In the case of `COc1ccc(/C=C/c2n[nH]c3ccc(N4CCOC4=O)cc23)cc1`, the GI50 is 2.72 µM and the TGI is 10.9 µM. Take `CCCCCCCCCCCCCCCCCCOCC(CO[P+](=O)O)OCCCCCCCCCCCCCCCCCC` (centres undefined): the TGI was above 50 µM. `NC(=S)N/N=C1/C(=O)N(c2ccc(Cl)cc2Cl)C(=O)C(=O)C1c1nc2ccccc2s1` (centres undefined) gave a TGI above 100 µM. In turn, `COC(=O)C1=C(CO)C2C=CC1C2` (centres undefined) returned a TGI above 100 µM. Same read-out and setting: then `O=c1ccn2n1CCCCC2`, with above 100 µM. Turning to `CC#C[I+]c1ccccc1`, the TGI was above 100 µM.

Consider `Cc1ccccc1C(C#N)C(=O)C(=O)Nc1cccc(Cl)c1` (centres undefined), for which the TGI is above 100 µM. The molecule `CC(C)NC(=O)OCc1c(COC(=O)NC(C)C)n(C)c2c1ccc1ccccc12` showed a TGI of 15.6 µM. Turning to `NS(=O)(=O)c1ccc(CCN=C=S)cc1`, the GI50 is 13.7 µM and the TGI turned out to be 26.6 µM. `O=[N+]([O-])c1cc(Cl)cc2cc(Cl)cnc12` had a TGI above 100 µM.

As for `COP1(=O)Oc2ccccc2C(=O)C(C(F)(F)F)(C(F)(F)F)O1` (centres undefined), the TGI was above 100 µM.

Regarding `Oc1c(C2=N[C@H]3CCCC[C@@H]3N2)ccc2ccccc12`, the TGI was above 100 µM. The molecule `CC(C)=CC(=O)Cc1nc2cc(C)c(C)cc2[nH]c1=O` gave a TGI above 100 µM. As for `N.N.NCCCCN.O=C([O-])C1(C(=O)[O-])CCC1.O=C([O-])C1(C(=O)[O-])CCC1.[Pt+4].[Pt+4]`, the GI50 was above 100 µM and the TGI is above 100 µM. Regarding `CO[C@@H]1[C@H](OC(=O)NC(=O)CCl)CC[C@]2(CO2)[C@H]1[C@@]1(C)O[C@@H]1CC=C(C)C`, the GI50 is 6.21 µM; the TGI is 35.7 µM and 36.9 µM. On to `COc1ccc(-c2ccc(C3CC(c4ccc(Cl)cc4)=NN3)o2)c([N+](=O)[O-])c1` (centres undefined), for which the GI50 was above 100 µM and the TGI is above 100 µM. On to `Clc1c(Cl)c2c(Cl)c(Cl)c1C[P+](c1ccccc1)(c1ccccc1)CC[P+](c1ccccc1)(c1ccccc1)Cc1c(Cl)c(Cl)c(c(Cl)c1Cl)C[P+](c1ccccc1)(c1ccccc1)CC[P+](c1ccccc1)(c1ccccc1)C2`, for which the TGI came out at 13.9 µM. Take `O=C(Cc1ccc(Cl)c(Cl)c1)N(CCc1ccc(Cl)c(Cl)c1)CCN1CCCC1`: the TGI was 6.51 µM. For `O=C1CCC2(CC1)SCCCS2`, the TGI is above 100 µM. The same measure, in the same setting: for `CCOC(=O)/C(=C/c1ccc(C#N)cc1)N(CC)CC` the value was above 100 µM; for `CCOC(=O)[C@@]12CCC(C1=O)[C@](C)(O)C[C@@H]2c1ccccc1`, above 100 µM; for `COc1cc([N+](=O)[O-])ccc1NC1=CC(=O)CCC1`, above 100 µM. `CC1C=CC(=O)C(n2cc(F)c(=O)[nH]c2=O)O1` (centres undefined) showed a TGI of 35 µM. Same read-out and setting: then `CC(=O)OCC1OC(n2c(N)c(C#N)c(-c3ccc(C)cc3)c(C#N)c2=S)C(OC(C)=O)C(OC(C)=O)C1OC(C)=O` (centres undefined), with 29.5 µM. In the case of `CCOC(=O)CCC(NC(=O)Cc1ccc(Oc2nc3ccccc3nc2-c2cccs2)cc1)C(=O)OCC` (centres undefined), the TGI was above 100 µM. Consider `COc1ccc(C2=NN(C(C)=O)C(c3cn(-c4ccccc4)nc3-c3ccc(Cl)cc3)C2)cc1` (centres undefined), for which the GI50 is above 100 µM and the TGI is above 100 µM.

With `COc1ccc(NC(=O)c2sc3nc(C)c(C(O)c4ccccc4)cc3c2N)cc1` (centres undefined), the GI50 was 0.761 µM and the TGI is above 100 µM. Turning to `ClC1=C(Cc2ccccc2)Cc2ccc3c(c21)CCC3`, the TGI is above 100 µM.
